Among all 310,000 compounds or so, about 2,200 (0.71%) showed an effect of 50% or more. The effect is printed as a negative number. Some of the results follow.
Molecular target: human ether-à-go-go-related gene (hERG) potassium channel (human, UniProt Q12809)
Test: primary screen, population patch clamp on CHO cells stably expressing hERG

human ether-à-go-go-related gene (hERG) potassium channel, sequence (Q12809 whole entry, looked up): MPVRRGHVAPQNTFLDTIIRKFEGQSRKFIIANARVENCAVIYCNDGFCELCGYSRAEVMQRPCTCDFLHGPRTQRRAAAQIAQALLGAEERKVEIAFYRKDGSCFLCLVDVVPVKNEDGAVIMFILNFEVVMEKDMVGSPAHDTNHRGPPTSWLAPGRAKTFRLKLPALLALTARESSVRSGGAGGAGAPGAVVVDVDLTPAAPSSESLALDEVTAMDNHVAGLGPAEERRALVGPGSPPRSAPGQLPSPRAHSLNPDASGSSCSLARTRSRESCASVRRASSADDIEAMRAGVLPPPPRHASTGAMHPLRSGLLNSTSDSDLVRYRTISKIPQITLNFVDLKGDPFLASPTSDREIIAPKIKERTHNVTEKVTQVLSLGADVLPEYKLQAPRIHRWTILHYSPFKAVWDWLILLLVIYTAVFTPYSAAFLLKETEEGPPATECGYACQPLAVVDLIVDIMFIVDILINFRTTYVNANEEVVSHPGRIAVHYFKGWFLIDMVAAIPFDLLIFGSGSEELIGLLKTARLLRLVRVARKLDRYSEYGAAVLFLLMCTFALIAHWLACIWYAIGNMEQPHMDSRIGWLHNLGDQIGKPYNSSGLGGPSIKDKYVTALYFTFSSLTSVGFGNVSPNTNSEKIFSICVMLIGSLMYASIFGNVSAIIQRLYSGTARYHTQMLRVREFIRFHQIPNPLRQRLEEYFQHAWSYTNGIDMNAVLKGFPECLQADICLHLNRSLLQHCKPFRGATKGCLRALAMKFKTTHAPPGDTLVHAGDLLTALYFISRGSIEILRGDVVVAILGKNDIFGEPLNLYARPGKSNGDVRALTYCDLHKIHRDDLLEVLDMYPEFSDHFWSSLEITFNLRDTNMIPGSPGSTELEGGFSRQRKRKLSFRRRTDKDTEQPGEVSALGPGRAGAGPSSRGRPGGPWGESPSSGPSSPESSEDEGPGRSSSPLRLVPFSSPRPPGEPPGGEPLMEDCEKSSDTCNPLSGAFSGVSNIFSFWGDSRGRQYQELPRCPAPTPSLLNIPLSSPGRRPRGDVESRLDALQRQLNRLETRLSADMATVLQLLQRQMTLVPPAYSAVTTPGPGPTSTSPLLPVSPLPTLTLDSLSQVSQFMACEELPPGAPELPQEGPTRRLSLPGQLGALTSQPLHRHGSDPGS

In order of rising “hERG current change (%, negative = inhibition) at 1uM” value:
1. O=C(c1ccco1)N1CCN(C(=O)c2ccc(COc3ccc4c(c3)CCC4)o2)CC1  -21%
2. Cc1onc(-c2ccccc2)c1C(=O)N1CCN(c2ccc([N+](=O)[O-])cc2)CC1  -17.4%
3. NC1=[NH+]C2CS(=O)(=O)CC2S1.[Br-] (stereo not shown)  -16.4%
4. O=C1CN(C(=O)COC(=O)CCC(=O)c2ccc3c(c2)OCCO3)c2ccccc2N1  -11.1%
5. CCN1C(=O)c2cccc3c(S(=O)(=O)NCc4ccccn4)ccc1c23  -10.5%
6. O=C(COC(=O)c1ccccc1S(=O)(=O)N1CCCCC1)NCC(F)(F)F  -8.44%
7. O=C(Cc1n[nH]c(=O)c2ccccc12)OCC(=O)c1ccc(F)cc1  -8.17%
8. COc1cccc(CNCCSc2nnnn2C)c1.Cl  -6.84%
9. O=S(=O)(c1ccc2ccccc2c1)N1CCCCC1  -6.42%
10. CCc1ccc(CNCc2cccs2)cc1.Cl  -5.46%
11. O=S(=O)(Nc1ccc(-c2csc(-c3ccccc3)n2)cc1)c1ccccc1  -4.45%
12. CN(CC(=O)Nc1cccc(F)c1)C(=O)/C=C/c1cc(Br)ccc1OC(F)F  -3.68%
13. Cc1ccc(-c2nc3cccnc3s2)cc1NC(=O)c1ccco1  -1.2%
14. Cc1ccc(C2NC(=O)c3c(sc4c3CCN(C)C4)N2)s1 (stereo not shown)  -1.01%
15. CCOc1ccc(OCC)c(NC(=O)Cn2c(C)nc3ccccc3c2=O)c1  -0.775%
16. O=C(Cc1cccs1)OCC(=O)c1ccco1  -0.558%
17. CC1(C)CC(=O)C2=C(C1)N(CC1CCCO1)C(=O)NC2(C(F)(F)F)C(F)(F)F (stereo not shown)  0.219%
18. CCOC(=O)C(C)On1c(-c2ccc(Cl)cc2)nc2ccc([N+](=O)[O-])cc21 (stereo not shown)  0.757%
19. CCCc1nc2ccccc2c(=O)n1/N=C/c1c(C)[nH]n(-c2ccc(C)cc2)c1=O  0.959%
20. Cl.c1ccc(CSc2nnc([C@@H]3CCCN3)o2)cc1  1.25%
21. Nc1c(Cl)cc(C(=O)c2c3ccc([N+](=O)[O-])cc3[n+]([O-])n2CCC[NH3+])cc1Cl.O=C([O-])C(F)(F)F  1.56%
22. CCC(C)(C)n1nnnc1CN(Cc1ccc(Cl)cc1)Cc1ccco1  2%
23. COc1ccc(CCC(=O)NCc2ccco2)cc1  2.07%
24. O=C(c1ccc(Cl)c([N+](=O)[O-])c1)N1CCN(S(=O)(=O)c2ccc(Cl)cc2)CC1  2.32%
25. Cc1cccc(N2CCCn3c2nc2c3c(=O)[nH]c(=O)n2C)c1  2.54%
26. FC(F)(F)c1ccc(NC(=S)NC2CCCCC2)cc1  2.6%
27. COc1ccc(C(O)c2ccccc2OP(=O)(N(C)C)N(C)C)cc1 (stereo not shown)  2.72%
28. O=C(CSc1ccc(Cl)cc1)N1CCCC1  2.74%
29. C/C(=N\NC(=O)CNC(=O)C(c1ccccc1)c1ccccc1)c1ccc(C(C)(C)C)cc1  2.98%
30. COc1ccccc1OCCC(=O)OCC(=O)NC(=O)NC(C)(C)C  3.66%
31. Clc1nc(Nc2ccccc2)nc(Nc2ccccc2)n1  3.76%
32. COC(=O)N/N=C1\CCCc2c(C)cc(C)cc21  5.03%
33. Cc1ccccc1CN1C(=O)CS/C1=N/N=C/c1ccco1  5.15%
34. CCOc1cc(C(=O)N(C)Cc2cc3ccccc3[nH]c2=O)cc(OCC)c1OCC  5.23%
35. Cc1nn(CC(=O)NC2C(=O)N3C(C(=O)O)=C(CSc4nnnn4C)CSC23)cc1Br (stereo not shown)  5.33%
36. Cc1ccc(C(=O)NCCNC(=O)c2ccc(C)o2)o1  5.42%
37. O=C(NCc1ccc(N2CCCC2=O)cc1)NC1CCCCC1  5.68%
38. O=C(NCC(=O)N(Cc1ccccc1)C(C(=O)NCC1CCCO1)c1ccccc1)c1ccco1 (stereo not shown)  6.15%
39. CCN1CCN(c2ccc(S(=O)(=O)N3CCCCC3)cc2NC(=O)/C=C/c2cccc(OC)c2OC)CC1  6.17%
40. O=C([O-])CSc1cccc2cccnc12.[Na+]  6.21%
41. Cc1ccc(S(=O)(=O)Nc2nc(C)c(C(=O)NN)s2)cc1  6.68%
42. COc1ccccc1N(C(=O)c1ccco1)C(C(=O)NC1CCCC1)c1ccncc1 (stereo not shown)  7.32%
43. Cc1cc(C)cc(NC(=O)CCN2CCOCC2)c1  7.44%
44. CC(=O)N1c2ccc(S(=O)(=O)N3c4ccccc4CC3C)cc2CC1C (stereo not shown)  7.91%
45. O=[N+]([O-])c1ccc(Nc2nc(N3CCOCC3)nc(N3CCOCC3)n2)cc1  8.29%
46. CC1CCN(c2c(NCC3CCC(C(=O)NCCCc4ccccc4)CC3)c(=O)c2=O)CC1 (stereo not shown)  8.36%
47. O=C(Cn1cncn1)NCc1cccc(OC(F)F)c1  8.71%
48. CCN(CC)CCNc1nc2ccccc2n1C  9.38%
49. O=c1cc(-c2ccccc2)nc2c(-c3ccccc3)c(C(F)(F)F)[nH]n12  9.52%
50. CCCC[C@@H]1CNC(=O)C(=O)N1CC(C)(C)C  9.57%
51. CSCC[C@H](NC(=O)Cc1c(C)c2c(cc(C)c3c(C)c(C)oc32)oc1=O)C(=O)O  9.6%
52. O=C(Nc1cccc(NC(=O)c2ccccc2Cl)c1)c1ccc([N+](=O)[O-])o1  9.67%
53. O=C(Nc1nc(=S)ss1)c1ccc(Cl)cc1Cl  9.74%
54. COC(=O)c1c(Sc2ccccc2)c2ccccc2n1C  10.1%
55. O=C(O)C(Cc1ccccc1)n1cccc1 (stereo not shown)  10.1%
56. O=C(CNS(=O)(=O)c1ccccc1)NCc1cccnc1  10.5%
57. CC(C)(O)C#Cc1ccc(C(=O)NCCc2ccc(S(N)(=O)=O)cc2)cc1  10.7%
58. O=S(=O)(NCCOc1cccc2cccnc12)c1ccc(F)cc1  10.7%
59. CN(CC(=O)Nc1ccccc1C(F)(F)F)C(=O)c1cc(Cl)nc2ccccc12  10.8%
60. C[C@@H](NC(=O)C1(c2ccccc2)CCN(C(=O)OC(C)(C)C)CC1)C(=O)N[C@@H](C(=O)O)c1ccccc1  10.9%
61. Cc1ccc(C)c(Cn2nnc3c(=O)[nH]c(C4CCCN(C(=O)c5cccs5)C4)nc32)c1 (stereo not shown)  11.1%
62. O=S(=O)(c1ccccc1)N1CCN(C(=S)Nc2ccccc2Cl)CC1  11.2%
63. Cl.O=C(CN1CCOCC1)NCc1cc([N+](=O)[O-])ccc1O  11.5%
64. Clc1cnc(Oc2ccc(Oc3ncc(Cl)cc3Cl)cc2)c(Cl)c1  11.7%
65. O=C(CCc1nc(-c2ccccc2)no1)NCC1CCCO1 (stereo not shown)  11.9%
66. Fc1ccc2nc(Nc3nc4cc5c(cc4s3)OCCO5)sc2c1  11.9%
67. Clc1cc2c(cc1/C=N/Nc1nc(N3CCOCC3)nc(N3CCOCC3)n1)OCO2  12.5%
68. CCc1ccc(/C(C)=N/NC(=O)CNC(=O)/C=C/c2ccccc2OC)cc1  12.6%
69. O=C1c2ccccc2NC(c2ccco2)N1/N=C/c1ccco1 (stereo not shown)  12.6%
70. Cc1nnc(SCC(=O)Nc2ccc(Oc3ccccc3)cc2)n1N  12.9%
71. CSc1ncccc1C(=O)N(C)CC(=O)Nc1cccc(F)c1  13.1%
72. CC(=O)N1c2ccc(S(=O)(=O)N(C)CC(=O)NCc3ccccc3)cc2CC1C (stereo not shown)  13.3%
73. Cc1cc(/C=C(\C#N)c2nc3ccccc3[nH]2)c(C)n1C  13.5%
74. CCCC(=O)Nc1sc(-c2ccccc2)c(-c2ccccc2)c1C(=O)O  13.8%
75. COCCOC1CCN(C(=O)C2CCC(=O)N(Cc3cccc(F)c3)C2)CC1 (stereo not shown)  14.2%
76. Cc1cnc(C(=O)OCc2c(C)cc(C(C)(C)C)cc2C)cn1  14.4%
77. CCOC(=O)c1ccc(S(=O)(=O)N2CCN(C3CCCC3)CC2)cc1  14.7%
78. COc1cccc(CC(=O)N(CCC2=CCCCC2)c2c(N)n(Cc3ccccc3)c(=O)[nH]c2=O)c1  15.1%
79. Cc1ccc(/C=C/C(=O)NCc2cccs2)cc1  15.3%
80. O=C(Nc1nnc(C2=COCCO2)o1)c1ccc([N+](=O)[O-])cc1  15.7%
81. COC(=O)CC1C(=O)NCCN1C(=O)Nc1ccc(Cl)cc1 (stereo not shown)  15.8%
82. CCNC(=O)NC(=O)C(C)Sc1nc2ccccc2c(=O)n1-c1cccnc1 (stereo not shown)  16.1%
83. CCOc1ccc(CCNC(=O)COC(=O)c2cccnc2Cl)cc1OCC  17.2%
84. CS(=O)(=O)NCc1ccc(C(=O)O)cc1  19.6%
85. CC1CC(C)CN(C(=O)c2ccc(CNc3c(N4CCCC4)c(=O)c3=O)cc2)C1 (stereo not shown)  19.7%
86. CC(=O)N1c2ccccc2C(=O)OC1c1cccnc1 (stereo not shown)  20.6%
87. CCn1nnnc1SCC(=O)c1ccc2c(c1)OCCO2  22.6%
88. CCn1c(-c2cccn(Cc3ccccc3)c2=O)n[nH]c1=S  23.4%
